Read counts are not given, so values of variants with three or more changes are uncertain.
B1: LINE1-full (parent)
chain: UACGUAGGUGGUUUUCCCCUGAUAGUGCUAAGGGGGCCUGGAAGUUUGGACUGGGCAGAGCUCAACACAGCGUGGCAAAGUGGCUGUGGCUAGACUGCCUCUCUGGAUUCCUCGUCACUCAGCAGGGCAUCUCUGAGAGAAAUGCC

Variants of: B1
Assay: self-cleavage, relative activity (ratio to wild type); higher = more cleavage; in vitro, sequencing; the parent is a self-cleaving ribozyme
With G25C U26C A57G A107G the self-cleavage was 0. Work on U1C A6G A43G U62C yielded a self-cleavage of 0. Variant U62C G83A U104C has a self-cleavage of 0.03. A50U C56U U130A showed a self-cleavage of 0.09. In the case of U20A A77U A124G, the self-cleavage is reported as 1.13. For U12C A67G U112C, the self-cleavage was 0.69. Work on U14C G33C U130C C146U yielded a self-cleavage of 1.6. Work on A59U U81A G114A yielded a self-cleavage of 1.04. U73A U115A A124U A142G showed a self-cleavage of 1.14. U20A A30G A78G U87A gave a self-cleavage of 0.3. In the case of U45C A124G A142G, the self-cleavage is reported as 0.57. Work on A77G G83C U108C yielded a self-cleavage of 2.66. With U23C U62C A77G A138G the self-cleavage was 0. With U15A G33U G83U U130C the self-cleavage was 0.85. U14C C123U U134C A138G gave a self-cleavage of 0.82. Variant U52C A57G G70C has a self-cleavage of 0.11. In the case of U13C U29C U91G, the self-cleavage is reported as 0.15. G8C A94G C133A showed a self-cleavage of 0. Variant G25A U52C G122A has a self-cleavage of 1.19. A57G A124G C133U A141G gave a self-cleavage of 1.33. In the case of U20C A24C A107G, the self-cleavage is reported as 0.88. U20A A57G U102C gave a self-cleavage of 0.47. U9A U46A A79G showed a self-cleavage of 0.72. A24U U109C A129U gave a self-cleavage of 1.6. For U13C C51A A124G, the self-cleavage was 0.75. U9C G32A U109C A121U C131A A136G showed a self-cleavage of 1.84. U52A G54A A64U A117G showed a self-cleavage of 0.23. In the case of U20C U81C U87A, the self-cleavage is reported as 0.08. In the case of U1C G8U U45C, the self-cleavage is reported as 1.06. Variant G48A U52G A65G G70A has a self-cleavage of 0.05. With C116A U132C U143A the self-cleavage was 0.9. With G35A A50G G80A the self-cleavage was 0.83. For U15C A43U U73A U102C, the self-cleavage was 0.95. Work on A22G U26A U47C G83U U85C U134A yielded a self-cleavage of 0.35. U9A U12C C38U A59U A67U gave a self-cleavage of 0.47. Work on A57U A64U A79G A138G yielded a self-cleavage of 0.1. Work on U13C U134G A142G yielded a self-cleavage of 1.75. U20C U26A U87A A141G showed a self-cleavage of 0. With U9C U12A U104A the self-cleavage was 1.22. G49A U132A A140G showed a self-cleavage of 0.67. U14A U20A A65G U130A U134A gave a self-cleavage of 0.07. A24G U109A A142G showed a self-cleavage of 1.6. U47C A92U A117G gave a self-cleavage of 0.46. Variant G125U U130C U143C has a self-cleavage of 1.27. U73A U109A C116U showed a self-cleavage of 1.03. Variant A65G A77G A129G A142G has a self-cleavage of 0.44. Variant U12C A42G A107G U119A has a self-cleavage of 1.78. With U26C U45A A78C the self-cleavage was 1.74. For U5A U115A U132C, the self-cleavage was 0.91. For U81A U102A U143C, the self-cleavage was 2.13. U20A U100C U143C gave a self-cleavage of 2.19. In the case of U15A C56U G60A, the self-cleavage is reported as 0.08. U13C G27U G54A A129G showed a self-cleavage of 0.55. U12G A30G A69U U73A showed a self-cleavage of 0. Variant A78G U81C C110U G127A has a self-cleavage of 1.69. With U1C A57U A129U the self-cleavage was 0.11. With U14C U91C U109G A129G the self-cleavage was 0. With C38U U73G A77U U104C U143A the self-cleavage was 1.56. In the case of U20G A79G U112A G137U, the self-cleavage is reported as 0.79. Work on U9C U20C G106A A107G yielded a self-cleavage of 1.61. Work on U9C U14C U85A yielded a self-cleavage of 0.29. With C56U A79U U102A U119C the self-cleavage was 0.13. For U20A A59G C99A A136G, the self-cleavage was 0.13. Work on U1C U47A A140G yielded a self-cleavage of 0.65. Work on U47A A124G U132C yielded a self-cleavage of 0.51. A79G U85C A124G U130C A142G gave a self-cleavage of 0. Variant G53A U73C U91A A140G has a self-cleavage of 0.44. With G10A U20C A77U U87G the self-cleavage was 0.16. Work on A42G A79G A121G yielded a self-cleavage of 1.15. A57U G83A G93U C99A showed a self-cleavage of 0.02. Work on U5A G55A G89U A92G U115C A140G yielded a self-cleavage of 0.06. U85C U134C A142G showed a self-cleavage of 0.34. Work on U13C A22U U47C A50U U73A U81C yielded a self-cleavage of 2.41. For A64U A121C U132C, the self-cleavage was 0.75. Variant A78G U132C A140G has a self-cleavage of 0.82. In the case of A57U A69U A124U A138G, the self-cleavage is reported as 0. With A30U A59U G74A A78G the self-cleavage was 0.27. Variant G88A C118U U130C has a self-cleavage of 0.06. Variant U62C U100C G105U U134G has a self-cleavage of 0. Work on U13C U104A A124G C133U yielded a self-cleavage of 0.2. U9A U39G U119C gave a self-cleavage of 1.38. With G53A A64G A69G U109A A142G the self-cleavage was 0.11. In the case of U20C U91C C99U A129G, the self-cleavage is reported as 0.11. For U14C U26A U62A U134C, the self-cleavage was 0.11. With U9A U14C A57G the self-cleavage was 1.28. In the case of A31G A129G U134C, the self-cleavage is reported as 0.9. In the case of U52C A92C A138G, the self-cleavage is reported as 0. Variant U47C A121U A129G has a self-cleavage of 1.53. For U14C A50U U102C U108C, the self-cleavage was 1.23. U45G U73A U132C A140G showed a self-cleavage of 1.76. Work on U12C U134C U143C yielded a self-cleavage of 2.13. Work on U9C A65U A79G yielded a self-cleavage of 0.54. U14C U20C U26A A142G showed a self-cleavage of 0.8. With A6G U104A G125U C146U the self-cleavage was 1.07. A43G A67U C128U showed a self-cleavage of 0.12. Variant U1C A30U A65U A79G A117G has a self-cleavage of 0. In the case of C38U A69G A141G, the self-cleavage is reported as 0.24. A42G A43G U45G gave a self-cleavage of 0.43. For A42G U62C U134C, the self-cleavage was 0.03. U14C U45C G53U showed a self-cleavage of 1.21. Variant U12G U62A U100A A124U has a self-cleavage of 0.24. Work on U13C U112A A142G yielded a self-cleavage of 1.05. U12C U29A A65U A129U gave a self-cleavage of 0.37. U12G U96A A107G showed a self-cleavage of 0.2. U1A U104A U119C A138G gave a self-cleavage of 1.3. With U73A U100C U132C the self-cleavage was 2.82. For U15C C19U A42G, the self-cleavage was 1.29. Variant G34A U47A U81A U100C has a self-cleavage of 2.99. Variant G33A U87C G144U has a self-cleavage of 0.28. G21A A94G A140G gave a self-cleavage of 0.37. For U45A U81A U100C, the self-cleavage was 2.8. In the case of U26C U39A G49A U73G A124U, the self-cleavage is reported as 0.66. Variant U1A U13C A92G has a self-cleavage of 0.25. For A64G U115C A142G, the self-cleavage was 0.27. With A57G U104C A138G the self-cleavage was 1.35. Variant A43U U47A U115C A121U has a self-cleavage of 0.95. U45C U100A U115A showed a self-cleavage of 0.5. A59U A65U U85A U115C gave a self-cleavage of 0.03. Work on G11A U13C U52C U102A C120U yielded a self-cleavage of 0. G60A U73A A92G showed a self-cleavage of 0.01. Work on A6G U108C A142G yielded a self-cleavage of 2.19. For U14C A24U A77G U100A, the self-cleavage was 1.49. With U45C G53A U115A the self-cleavage was 0.46. Work on U52A U62C A65G yielded a self-cleavage of 0. Work on U1C U5C C116A yielded a self-cleavage of 0.8. For U104A A140U G144A, the self-cleavage was 1.23. Variant U15A U23C A129G has a self-cleavage of 1.06. With A22G G93U C98U U143C the self-cleavage was 0.03. Work on U9C A77U U109C U112C U134A yielded a self-cleavage of 1.12. In the case of U45A U115C U143C, the self-cleavage is reported as 0.87. Work on U15C U20C U39A A141G yielded a self-cleavage of 1.17. For U39C G82A A117U U143C, the self-cleavage was 1.32. U45C U46A A57U A124G gave a self-cleavage of 0. In the case of G82C U108C A140G, the self-cleavage is reported as 2.53. U13G U14C A79G gave a self-cleavage of 1.41. For U5A A64G U100A, the self-cleavage was 0.28. U100C A136U U143C showed a self-cleavage of 2.26. For U9C G40A U73A, the self-cleavage was 0.32. Variant A57C A78G G80A has a self-cleavage of 0. In the case of C17U A121C A140G, the self-cleavage is reported as 1.14. Work on U20C U81C U96G yielded a self-cleavage of 0. A65G U104C C145U showed a self-cleavage of 0. U5C U12A U73C U102C showed a self-cleavage of 0.84. Work on U12C G44A U132C yielded a self-cleavage of 1.57. With U26C U47A G58A G75A the self-cleavage was 0.03. A42G A78G U81C U102C showed a self-cleavage of 0.71. Variant U9C U100C U115C has a self-cleavage of 2.3. For U13C U112C U115C, the self-cleavage was 0.57. A78G G88A A117U showed a self-cleavage of 0.06. A124U A129U A140G A142G showed a self-cleavage of 1.66. With A78U A94U A107G A129G the self-cleavage was 0.37. A67G C128U U132A showed a self-cleavage of 0.47. With U47G A94G U112C the self-cleavage was 0. In the case of C99U U130C A142G, the self-cleavage is reported as 0.12. In the case of U15C A42G A141G, the self-cleavage is reported as 0.86. A42G A50U U115C showed a self-cleavage of 1.24. With U15A U45C U47A the self-cleavage was 0.71. Work on U13C U20C A42G G55U U62C A67U U132C yielded a self-cleavage of 0.23. In the case of U15C A64U A142G, the self-cleavage is reported as 0.58. G7A U9G U13A A30U showed a self-cleavage of 1.2. C84U U85C A138G showed a self-cleavage of 0.05. A2U A22U U26A C37U A43U A57C A77U U96C showed a self-cleavage of 0.14. In the case of U12A U73A U132C A136U U143G, the self-cleavage is reported as 1.41. Work on G34A U47C A77G U102C yielded a self-cleavage of 1.31. U12G U15C A30G A121C gave a self-cleavage of 0. Variant A24U A43G U81G has a self-cleavage of 1.59. With A77G U96A G114U the self-cleavage was 0.09.
